Experimental data reported in PubChem BioAssay AID1508623 (National Center for Advancing Translational Sciences (NCATS), 2021).
The campaign covered roughly 48,000 compounds. About 450 (0.94%) were called active. Another 19% or so got no clear call; they are omitted. Calls follow the shape of the dose curve; as a rule, active = well fitted inhibition curve with a large enough effect; inconclusive = small, poorly fitted or top-dose-only effect; inactive = no such curve, though single readings can be large or run the other way. The list shows a part of the results.

Test: Primary qHTS for Identification of Small Molecule Inhibitors of Huntingtin Promoter Activity; also: nearly all actives have a fitted effect of over 50% in size
Conditions: HEK293 HTT promoter firefly luciferase reporter (activity 0% = vehicle and -100% = no light), 24 h; series mostly up to 57.5 µM; activity change, negative = inhibition: at the top concentration
Outline: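 Firefly luciferase readout (Dual-Glo, 10 min RT) after 24 h, 37 °C compound exposure (final up to 57.5 uM) of HEK293 reporter cells cultured 24 h beforehand; PTC124 at 50 uM final as control inhibitor; activity scaled vehicle 0%, zero RLU -100%.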
Potency is read from the fitted curve at half-maximal effect.

Activity change, negative = inhibition, inactive:
Cn1c(=O)c2c(nc(N3CCOCC3)n2Cc2ccccc2)n(C)c1=O -4.94%, Cc1cccc(C)c1NC(=O)Cn1cc(S(=O)(=O)Cc2ccc(F)cc2)c2ccccc21 -19.5%, Cc1cc(C)cc(NC(=O)Cn2c(=O)n(CC(=O)NCCc3ccccc3)c(=O)c3ccccc32)c1 -8.94%, COc1ccc(C(=O)Nc2nnc(SCc3cc(=O)n4cc(Cl)ccc4n3)s2)cc1 28.7%, Cc1ccc(CNC(=O)CN2C(=O)COc3ccccc32)cc1 34.4%, Cc1noc(-c2ccc(-c3noc(-c4ccccc4)n3)cc2)n1 37%, CCC(C(=O)NCc1ccc2c(c1)CCN2C(=O)c1ccc(F)cc1)c1ccccc1 (stereo not drawn) -6.39%, CCOC(=O)c1cc(-c2ccc(C)cc2)n(CCC(=O)Nc2cc(Cl)ccc2C)c1C 6.57%, CC(=O)c1cc(-c2ccccc2)n(CCC(=O)Nc2nc3c(C)cccc3s2)c1C -15.8%, CCOc1ccc(CCNC(=O)c2cc(Nc3ccc(C)cc3C)nc3ccccc23)cc1OCC 13%, CC1CCN(S(=O)(=O)c2ccc3[nH]cc(C(=O)NCc4ccc(F)cc4)c(=O)c3c2)CC1 -1.78%, O=C1Cc2cc(S(=O)(=O)N3CCCCC3)cc3c2N1CCC3 -16.4%, Cc1ccc(N2CC(NC(=O)Cc3ccc(F)cc3)CC2=O)cc1 (stereo not drawn) -16.6%, Cc1cccc(CSc2nc(=O)c3c(n2C)NC(=O)CC3c2cccc(O)c2)c1 (stereo not drawn) -12.9%, Cc1ccc2c(c1)sc1nc(-c3cc4cc(Cl)ccc4oc3=O)cn12 -27.1%, COc1ccccc1NC(=O)Cn1c(=O)n(-c2cccc(Cl)c2)c(=O)c2sc3ccccc3c21 -13%, COc1cc2[nH]c(=O)n(Cc3ccc(C(=O)NCc4ccc(C)cc4)cc3)c(=O)c2cc1OC -22.7%, O=C(Cn1c(=O)n(Cc2ccc(C(=O)NCc3ccc4c(c3)OCO4)cc2)c(=O)c2ccccc21)Nc1cccc(Cl)c1 -6.33%, Cc1cnc(NC(=O)Nc2cc(Br)c(C)cc2OC[C@@H]2CNCCO2)cn1 -27.7%, CC1=C(C(=O)Nc2cccc(C(F)(F)F)c2)C2(CCCCCC2)OC1=O -9.21%, CC(C)CCn1c(=O)c2sccc2n2c(CCCC(=O)Nc3ccc(C(C)C)cc3)nnc12 -13.7%, COc1ccc(N2CCN(c3nc4ccccc4n4c(C)nnc34)CC2)cc1 -5.06%, CCOc1ccc2nc(NC(=O)c3nc(SCc4ccc(C)cc4)ncc3Cl)sc2c1 -9.99%, Cc1ccc2occ(CC(=O)Nc3c(C(=O)Nc4ccc(Cl)cc4)oc4ccccc34)c2c1 7.16%, CC(C)COc1ccc(C(=O)N2CCC(c3nc4ccccc4s3)CC2)cc1 -21.9%, O=C(CC1N=C2c3ccccc3N=C(SCC(=O)Nc3ccccc3F)N2C1=O)NCc1ccc2c(c1)OCO2 (stereo not drawn) 7.32%, Cc1cccc(C)c1NC(=O)CN(C)S(=O)(=O)c1ccc2[nH]c3c(c2c1)CCCC3 -22.8%, CN(C(=O)CSc1nc2ccccc2[nH]1)c1ccc(F)cc1 7.42%, Cc1ccc(CSc2nncn3c2cc2sccc23)cc1 2.21%, Cc1c(C(=O)Nc2ccc(N3C[C@@H](C)O[C@@H](C)C3)nc2)cccc1-c1ccc(OC(F)(F)F)cc1 5.8%, Cc1cccc(N2C(=O)N(Cc3ccc(C(C)(C)C)cc3)c3ccccc3S2(=O)=O)c1 -23.7%, COc1ccccc1NC(=O)C1=C(C)Nc2nc(SCC(=O)c3ccc(C)cc3)nn2C1c1ccc(F)cc1 (stereo not drawn) -2.74%, CC1CCCN(S(=O)(=O)c2cc(C(=O)NCCc3ccccc3)n(C)c2)C1 (stereo not drawn) -8.98%, Cc1ccccc1CNC(=O)c1ccc(Cn2c(SCc3ccccc3)nc3cccnc32)cc1 -13.4%, Cc1ccc(-c2nc(CNC(=O)NC3CCCCC3)c(C)o2)cc1 0%, COc1ccc(CNc2nc(-c3ccco3)nn2C(=O)c2ccccc2C)cc1 16.2%, CCc1ccc(C(=O)Nc2cccc(-c3nc4cc(C(C)C)ccc4o3)c2)cc1 -4.16%, CC(=O)c1cccc(NC(=O)Nc2cc3c(cc2N2CCCC2)n(C)c(=O)n3C)c1 -3.23%, Cc1ccc(Cl)cc1NC(=O)c1ccc2nc(CCc3ccccc3)oc2c1 -31.1%, CCn1cc(C(=O)NCc2ccccc2Cl)c(=O)c2cc(S(=O)(=O)N3CCCCCC3)ccc21 10.7%, CCOc1ccc(Nc2oc(-c3ccc(COc4ccc(C)cc4)o3)nc2C#N)cc1 -20.8%, COc1ccc(NC(=O)c2nnn(CC(=O)Nc3cc(C)cc(C)c3)c2N)c(OC)c1 -2.76%, CCN(C(=O)c1cc(S(=O)(=O)N2CCCC2)cn1C)c1ccc(OC)cc1 15%, CCCCC(=O)Nc1ccc(C(=O)OCc2cc(=O)n3ccsc3n2)cc1 -8.09%, O=S(=O)(c1ccccc1)c1nc(-c2ccco2)oc1SCc1ccc(F)cc1 -35%, CSCC[C@H](NC(=O)[C@H](Cc1c[nH]c2ccccc12)NC(=O)CCNC(=O)OC(C)(C)C)C(=O)N[C@@H](CC(=O)O)C(=O)N[C@@H](Cc1ccccc1)C(N)=O 2.13%, Cc1ccc(NC(=O)Cn2c(=O)cc(-c3ccccc3)c3c(C)nn(C)c32)c(Cl)c1 -6.58%, CCOC(=O)c1sc2cccc(F)c2c1S(=O)(=O)Nc1ccccc1F -13.3%, Cc1ccc(C)c(NC(=O)Cn2c(=O)n(CC(=O)NCCc3ccccc3)c(=O)c3ccccc32)c1 -6.4%, O=C(CSc1nnc(-c2ccc(Cl)cc2)c(-c2ccc(Cl)cc2)n1)NC1CCCC1 -8.28%, N#Cc1ccccc1NC(=O)C(=O)NCC(c1cccnc1)N1CCc2ccccc21 (stereo not drawn) -25%, O=C(Nc1cc(F)ccc1F)c1cnn2c(C(F)F)cc(-c3ccccc3)nc12 -8.44%, COC(=O)c1ccc(NC(=O)CSc2nc3cc4ccccc4cc3[nH]2)cc1 -8.98% [at 11.5 µM], CC(C)NNC(=O)c1ccncc1 -4.08%, O=C(c1ccccc1)c1ccc2nc(N3CCN(c4ccc(F)cc4)CC3)c3nncn3c2c1 -4.65%, Cc1ccc(S(=O)(=O)c2nnn3c2nc(N2CCN(c4cccc(C)c4C)CC2)c2ccccc23)cc1C 3.22%, COc1ccccc1-c1cc2nc(C)c(CCC(=O)NC3CCCCC3)c(C)n2n1 -31.9%, O=C(NC1CCCCC1)c1ccc2c(c1)N(Cc1cccc(Cl)c1)C(=O)c1ccccc1S2=O (stereo not drawn) -19%, CCc1ccc(NC(=O)c2sc3nc(C)cc(C)c3c2NC(=O)c2ccccc2OC)cc1 23.5%, CCN(Cc1ccccc1)C(=O)CCS(=O)(=O)c1ccc2c(c1)CCN2C(C)=O -6.96%, COc1ccc(CN2CCN(S(=O)(=O)c3ccc(NC(C)=O)cc3)CC2)c(OC)c1OC -29.7%, O=C(NCc1ccco1)c1ccc2c(c1)N(Cc1cccc(Cl)c1)C(=O)c1ccccc1S2=O (stereo not drawn) -39.9%, CCOc1ccc(CCNC(=O)Cn2c(C)c3cnn(-c4ccccc4)c(=O)c3c2C)cc1 -13.9%, COc1cc(OC)c(NC(=O)CSc2cc(=O)n(C)c3ccc(Cl)cc23)cc1Cl -17.9%, CC(=O)c1cccc(Nc2nc(-c3ccccc3Cl)nc3ccccc23)c1 -31.2%, Cc1ccccc1Cn1c2ccccc2c2cnn(CC(=O)NCCc3ccc(Cl)cc3)c(=O)c21 13.8%, Nc1ncc(S(=O)(=O)NCc2ccc(F)cc2)cn1 -9.78%, CC(C)c1cccc(C(C)C)c1NS(=O)(=O)c1cccs1 -31.3%, Cc1ccc2[nH]c3c(=O)n(CC(=O)N4CCCC(C)C4)ncc3c2c1 (stereo not drawn) 0.912%, CCOC(=O)c1c(C)[nH]c(C)c1S(=O)(=O)NCC(=O)N1CCN(c2ccccc2F)CC1 -7.68%, COc1ccc(CNC(=O)C2CCN(S(=O)(=O)c3ccc4c(ccn4C)c3)CC2)cc1 -14.2%, Cc1cc(C)c2c(-n3cccc3)c(C(=O)NCC(C)c3ccccc3)sc2n1 (stereo not drawn) -15.3%, COc1ccc(C(=O)CCC(=O)Nc2cc(C)ccc2C)cc1 -14.7%, CCOc1ccccc1NC(=O)c1cc2c(=O)[nH]c3ccccc3c2s1 -13.6%, O=C1c2cccc(O)c2C(=O)c2c(O)cccc21 -5.17%, Cc1cc(C)c2c(=O)c3c(oc2c1)C(=O)N(Cc1ccco1)C3c1ccccc1F (stereo not drawn) -12.9%, COc1ccc(-c2nc(S(=O)(=O)c3ccc(C)cc3)c(NCc3ccccc3)o2)cc1 -17.4%, CCc1c(C)c(C#N)c2nc3ccccc3n2c1Nc1cccc(C(F)(F)F)c1 -16.8%, CCc1cccc(NC(=O)C(CC)n2nc(C)c3sc4ccccc4c3c2=O)c1 (stereo not drawn) -0.863%, Cc1c(C(=O)NCc2ccccc2Br)oc2ccc3c(c12)C(=O)CC(C)(C)O3 4.79%, COc1ccc(NC(=O)c2sc3nc4c(cc3c2N)CN(Cc2ccccc2)CC4)cc1OC -20.8%, Cc1noc(-c2ccc(-c3noc(-c4ccc(C(F)(F)F)cc4)n3)cc2)n1 -1.81%, CC(C)c1ccc(NC(=O)C(Cc2ccccc2)NS(=O)(=O)c2ccc3c(c2)oc(=O)n3C)cc1 (stereo not drawn) -26.1%, O=C(NCCCN1CCN(c2ccc(F)cc2)CC1)c1ccc2nc(CCc3ccccc3)oc2c1 -8.87%, CN(C)CCNC(=O)Cn1nc(N2CCN(c3ccccc3)CC2)ccc1=O 12.4%, CCOc1ccc(CC(=O)NCc2ccc3c(c2)CCN3C(C)=O)cc1OCC -22.8%, CC(C)(C)OC(=O)N1CCC(c2c(C(=O)N3CCN(c4ncccn4)CC3)cnn2-c2cccc(F)c2)CC1 -2.91%, COc1ccc(NC(=O)CCc2nnc3n(CC(C)C)c(=O)c4ccccc4n23)cc1OC -4.5%, Cc1ccc(O)c(NC(=O)COCc2cc(-c3ccco3)on2)c1 18.8%, COc1ccc(OC)c(NC(=O)Cn2cc(C(=O)c3ccc(Cl)cc3)c(=O)c3cc(OC)ccc32)c1 -20.3%, CC(=O)Nc1nonc1-c1nnc(SCc2ccccc2Cl)n1C -15.7%, COc1cc2c(cc1OC)n(CC(=O)c1ccc(C)cc1)c(=O)n1nc(CCn3nc(C)cc3C)nc21 -10.4%

Potency, active:
CC(C)c1ccc(NC(=O)Cn2c(=O)oc3cc(S(=O)(=O)N4CCCC4)ccc32)cc1 14.1 µM
